Measurements reported in PubChem BioAssay AID686971 (National Center for Advancing Translational Sciences (NCATS), 2013).
Hit rate of the full screen: of about 360,000 compounds, about 7,500 (2.1%) were called active. The shares of active, inactive and inconclusive entries below differ from those in the screen. The call rests on the fitted dose curve; in most records, active means well fitted cell-killing curve with a large enough effect; inconclusive means small, poorly fitted or top-dose-only effect, or effect the other way, or another doubt; inactive means no such curve, though single readings can be large or run the other way. No potency is given beside an inconclusive call; the fits are too rough.
Potency means the concentration at half of the fitted maximal effect; tags describe the fitted curve by direction and shape.

Experiment: qHTS for induction of synthetic lethality in tumor cells producing 2HG: qHTS for the HT-1080-IDH1KD cell line;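 on activity, negative = toxicity: 0% = DMSO wells and -100% = cell-free medium wells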
Conditions: HT-1080 IDH1 knockdown viability, ATP luminescence, 48 h; activity, negative = toxicity: at 46.1 µM (top of the series) unless noted
In short: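 CellTiter-Glo luminescence after 48 h compound exposure at 37 degrees C of IDH1-knockdown HT-1080 cells in 5% FBS RPMI. %Activity scaled between DMSO wells and cell-free media wells, with curves fitted and assigned curve classes.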
In the case of `CN(C)c1ccnc(Nc2ccccc2)c1C#N`, the “activity, negative = toxicity” value is reported as inactive: 13.8%. For `CN1c2ccccc2C(O)=C(C(=S)Nc2ccc(Cl)cc2)S1(=O)=O`, the Potency was inconclusive [cytotoxic, single point]. In the case of `COc1ccc(OC)c2[nH]c(=O)c(CCNS(=O)(=O)c3ccc(Cl)cc3)cc12`, the “activity, negative = toxicity” value is reported as inactive: 15.5%. In the case of `O=S(=O)(Nc1cccc2cccnc12)c1ccc(S(=O)(=O)N2CCCC2)cc1`, the Potency is reported as active: 1.26 µM. In the case of `Cc1cccc(C(=O)N2CCC(=O)N([C@H](COCc3cccc(C(F)(F)F)c3)Cc3ccccc3)CC2)c1`, the Potency is reported as inconclusive [cytotoxic, single point]. In the case of `CCOc1ccc(CCNC(=O)c2[nH]c(C)c(C(C)=O)c2CC)cc1OCC`, the Potency is reported as inconclusive [cytotoxic, single point]. With `CCOC(=O)c1c(N)sc2c(OC)c(Br)ccc12` the Potency was inconclusive [cytotoxic, single point]. In the case of `Cc1ccccc1Nc1cc2ccccc2c(=O)[nH]1`, the Potency is reported as inconclusive [cytotoxic, partial curve]. With `O=C(COc1cccc(NC(=O)c2cccc([N+](=O)[O-])c2)c1)c1ccc(F)cc1` the Potency was inconclusive [cytotoxic, single point]. In the case of `Cc1ccc(NC(=O)CCn2cccc2)cc1C`, the “activity, negative = toxicity” value is reported as inactive: 0.222%. With `O=c1[nH]c(C2CCN(S(=O)(=O)c3ccc(S(=O)(=O)NC4CC4)cc3)CC2)nc2c1nnn2Cc1ccccc1` the “activity, negative = toxicity” value was inactive: -20%. With `COc1cc(/C=N/Nc2ncnc3sc4c(c23)CCC4)ccc1O` the Potency was inconclusive [cytotoxic, single point]. In the case of `NNC(=O)c1[nH]c(-c2ccccc2)cc1-c1ccccc1`, the Potency is reported as inconclusive [cytotoxic, single point]. With `Cc1ccc(CNC(=O)C2c3ccccc3C(=O)N3CCc4ccccc4C23)o1` (stereo not drawn) the Potency was inconclusive [cytotoxic, single point]. For `Cc1ccccc1N(C(=O)Cn1nnc(-c2ccc(F)cc2)n1)C(C(=O)NC(C)(C)C)c1ccncc1` (stereo not drawn), the “activity, negative = toxicity” value was inactive: -10%. For `O=C(Nc1ccc(Cl)c(S(=O)(=O)N2CCOCC2)c1)C1CCCC1`, the “activity, negative = toxicity” value was inactive: 0%. For `Oc1ccc(C[C@H]2CNC(=S)N2C[C@H]2CCCN2C[C@H](Cc2ccccc2)N2C[C@H](Cc3ccc(O)cc3)N(CCc3ccccc3)C2=S)cc1`, the Potency was active: 18.4 µM. With `O=C(N/N=C/c1ccc(O)cc1O)c1ccncc1` the Potency was active: 7.31 µM. With `CC(CN1CCOCC1)OC(=O)c1ccc(Br)cc1` (stereo not drawn) the Potency was inconclusive [cytotoxic, single point]. With `Cc1ccc([N+](=O)[O-])cc1N=C(c1cccc([N+](=O)[O-])c1)N1CCOCC1` the Potency was inconclusive [cytotoxic, partial curve]. In the case of `CCN(CC)c1cc(C(F)(F)F)nc(-c2ccccn2)n1`, the Potency is reported as inconclusive [cytotoxic, single point]. With `CCn1c2ccc(C)cc2c2nc3cc(C(=O)O)ccc3nc21` the “activity, negative = toxicity” value was inactive: -23.5%. For `O=C(C(=O)N1CCN(C(=O)c2ccco2)CC1)c1cc2ccccc2o1`, the “activity, negative = toxicity” value was inactive: 3.18%. For `O=C(c1ccc(-c2nnc(Nc3cccc(Cl)c3)c3ccccc23)cc1)N1C[C@H]2C[C@H](C1)c1cccc(=O)n1C2`, the Potency was inconclusive [cytotoxic, single point]. With `COc1cc2cc(C(c3nnnn3C(C)(C)C)N3CCc4ccccc4C3)c(=O)[nH]c2cc1OC` (stereo not drawn) the Potency was inconclusive [cytotoxic, single point]. In the case of `N#C/C(=N\Nc1ccc([N+](=O)[O-])cc1)C(N)=S`, the Potency is reported as active: 13 µM. For `COC(=O)c1cccc(CC2(C)C(=O)Nc3ccc(OC(F)(F)F)cc32)c1` (stereo not drawn), the Potency was inconclusive [cytotoxic, single point]. In the case of `CC(C)(C)c1csc(Sc2ccc([N+](=O)[O-])cn2)n1`, the Potency is reported as inconclusive [cytotoxic, single point]. For `COc1cc(C(=O)NN=Cc2ccc(N(C)C)cc2)cc(OC)c1OC`, the Potency was active: 2.91 µM. In the case of `Cc1nc(C)c2c(=O)cc(-c3ccccc3)[nH]c2n1`, the Potency is reported as active: 8.91 µM. With `COc1ccccc1CNC(=O)CCNC(=O)N1CC(=O)Nc2ccccc21` the Potency was inconclusive [rising, single point]. With `CNCCOc1ccc(Cl)c(Cl)c1` the Potency was inconclusive [cytotoxic, partial curve]. With `COc1ccc2c(c1)c1ncn(CCCN3CCOCC3)c(=O)c1n2C` the Potency was inconclusive [cytotoxic, single point]. For `CSc1ccc(Cl)c(C(=O)Nc2ccc(Cl)cn2)c1`, the Potency was active: 5.8 µM. With `O=C(NC(c1ccccc1)c1ccsc1)C1CCN(CCOc2ccc(Cl)cc2Cl)CC1` (stereo not drawn) the Potency was active: 16.4 µM. For `CCCCc1c(-c2ccccc2OC)ncn1CCc1ccccc1Cl`, the Potency was inconclusive [cytotoxic, single point]. With `Cc1cccn2c(=O)c(/C=C(\C#N)C(=O)NC3CCS(=O)(=O)C3)c(Oc3ccccc3Cl)nc12` (stereo not drawn) the Potency was inconclusive [cytotoxic, single point]. With `Nc1nonc1-n1nnc(C(=O)N/N=C/c2ccc(F)cc2)c1-c1cccs1` the Potency was inconclusive [cytotoxic, single point]. With `Cc1c(NC(=O)C(C)OC(=O)c2cc3c4ccccc4n(C)c3s2)c(=O)n(-c2ccccc2)n1C` (stereo not drawn) the Potency was inconclusive [cytotoxic, single point]. With `COc1ccc(-c2nn(-c3ccccc3)cc2/C=C/C(=O)NCCCn2ccnc2)cc1OC` the activity, negative = toxicity was inconclusive: -14.3% [cytotoxic]. For `CC(=O)C1CCC2C3CCC4=CC(=O)CCC4(C)C3(F)C(O)CC12C` (stereo not drawn), the activity, negative = toxicity was inconclusive: 24.2%. For `COc1cc(/C=C2/SC(=S)N(Cc3ccccc3)C2=O)cc(OC)c1O`, the Potency was inconclusive [cytotoxic, partial curve]. In the case of `COC(=O)c1ccc(C(NC(=O)OCc2ccccc2)/C(C)=C/[C@@H](C)C(=O)NCc2ccc(-c3ccccc3)cc2)cc1` (stereo partly drawn), the “activity, negative = toxicity” value is reported as inactive: -4.03%. With `CCOC(=O)C1=CCN(S(=O)(=O)c2ccccc2F)C1c1ccc(Cl)c(Cl)c1` (stereo not drawn) the Potency was inconclusive [cytotoxic, single point]. With `CCn1c(C)[n+](CC(O)COCC2CC=CCC2)c2ccccc21` (stereo not drawn) the “activity, negative = toxicity” value was inactive: -24%. In the case of `COc1ccc(S(=O)(=O)N2CCCc3ccccc32)cc1[N+](=O)[O-]`, the Potency is reported as active: 8.2 µM. With `Cc1ccc(-c2csc(NC(=O)CN3CCOCC3)n2)cc1C` the “activity, negative = toxicity” value was inactive: -2.78%. For `CN(c1ccccc1)S(=O)(=O)c1ccc(C(=O)Nc2nnc(-c3ccco3)o2)cc1`, the Potency was inconclusive [cytotoxic, full curve, poor fit]. With `COc1ccc2[nH]c(=O)c(CN(Cc3ccco3)C(c3nnnn3Cc3ccccc3)C(C)C)cc2c1` (stereo not drawn) the “activity, negative = toxicity” value was inactive: -27.5%. With `O=S(=O)(CCSc1nc2ccccc2s1)c1nc2ccccc2s1` the Potency was active: 20.6 µM. For `Cc1cccc(N2CCC(N=CN(C)C)=N2)c1`, the Potency was inconclusive [cytotoxic, single point]. For `Cc1ccc(C(=O)Nc2ccccc2-c2ccccc2)cc1S(=O)(=O)Nc1cccc(C)c1C`, the Potency was inconclusive [cytotoxic, single point]. In the case of `CCc1ccc(CN2CCC(n3nccc3NC(=O)c3ccccc3OC)CC2)o1`, the “activity, negative = toxicity” value is reported as inactive: 9.12%. In the case of `O=C(NN1C(=O)/C(=C/c2ccc(O)cc2)SC1=S)c1cccc(O)c1`, the “activity, negative = toxicity” value is reported as inactive: 11.2%. In the case of `N#Cc1c(N)[nH]c(=S)c(C#N)c1-c1ccccc1`, the Potency is reported as inconclusive [cytotoxic, single point]. For `CCOC(=O)C1CCCN(C(=O)Cn2nc(C)c3c(C)n(-c4ccccc4)nc3c2=O)C1` (stereo not drawn), the “activity, negative = toxicity” value was inactive: 9.87%. For `CCCCC(=O)NC(c1cccc([N+](=O)[O-])c1)c1ccc2cccnc2c1O` (stereo not drawn), the Potency was inconclusive [cytotoxic, full curve]. For `CCOC(=O)C(C)OC(=O)C1=C(C)NC(=O)NC1c1ccc2c(c1)OCO2` (stereo not drawn), the “activity, negative = toxicity” value was inactive: -0.164%. With `CCc1nnc(NC(=O)CSc2nc(C)c3c(c2C#N)CCCC3)s1` the Potency was inconclusive [cytotoxic, single point]. With `CCOC(=O)C(=CNc1cscc1S(=O)(=O)C(C)C)C(=O)OCC` the “activity, negative = toxicity” value was inactive: 11.7%. With `CCc1nc2c(OCCC3CCCCC3)cccn2c1N(C)C(=O)CC(C)C` the Potency was inconclusive [cytotoxic, single point]. For `CC(=O)OC1c2ccccc2C(=O)N1Cc1ccccc1` (stereo not drawn), the “activity, negative = toxicity” value was inactive: 0.613%. In the case of `CCN(CC)CCNC(=S)Nc1ccc2nc(N3CCCC3)cc(C)c2c1`, the Potency is reported as inconclusive [cytotoxic, single point]. With `S=C(NCCc1ccc(Cl)cc1)NC1CCCC1` the “activity, negative = toxicity” value was inactive: 12.7%. In the case of `Cc1ccccc1-n1c(C)cc(/C=C2\NC(=O)NC2=O)c1C`, the Potency is reported as inconclusive [cytotoxic, single point]. For `O=C(NCCc1ccccc1)c1ccc2c(c1)S(=O)(=O)N=C1CCCCCN12`, the “activity, negative = toxicity” value was inactive: 8.2%. For `CC1=NN(c2ccccc2)C(=O)/C1=C/C=C/c1ccccc1`, the Potency was active: 9.2 µM. For `CN1/C(=C\C(=O)C[n+]2ccc3ccccc3c2)C(C)(C)c2ccccc21`, the Potency was inconclusive [cytotoxic, full curve]. In the case of `CC1(C(=O)NS(=O)(=O)C2CC2)CCCN(C(=O)c2ccc3c(c2)OCO3)C1` (stereo not drawn), the Potency is reported as inconclusive [rising, single point]. In the case of `O=C(Nc1ccc(F)cc1)c1ccc(S(=O)(=O)N2CCCC2)cc1`, the “activity, negative = toxicity” value is reported as inactive: -2.09%. In the case of `COc1ccccc1N1CCN(CC(=O)NCC2CCCO2)CC1` (stereo not drawn), the “activity, negative = toxicity” value is reported as inactive: 4.65%. In the case of `CC(=O)c1c(C)[nH]c(C(=O)NCCc2cccc(C)c2)c1C`, the Potency is reported as inconclusive [cytotoxic, single point]. In the case of `COc1ccc(OC)c(NC(=O)c2ccc(-n3cccn3)nc2)c1`, the “activity, negative = toxicity” value is reported as inactive: 1.37%.
